Measured values published in the supplement of paper PMC6206098.
± gives the uncertainty stated by the source. The sequences are guide strands of siRNAs; only the seed at positions 2 to 7 varies.

Columns and labels:
3LL = assay: cell viability relative to siNT1 control; higher = less toxic; settings: concentration: 10 nM; 96 h; Mus musculus;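 further: Luminescence-based viability of cells reverse transfected in 384-well plates with lipid-complexed siRNAs built on a non-toxic 19mer backbone whose passenger strand carries 2′-O-methyl groups at positions 1 and 2, triplicates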
Experimental: (§1)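 Arrayed screen of 4096 siRNA duplexes, each carrying one of all possible 6mer seeds at guide-strand positions 2-7 in a fixed neutral 19mer scaffold (constant flanks: U at position 1, then ACAUGUAAACCA, plus a 3' AA overhang). The passenger strand is 2'-O-methylated at positions 1-2 so only the guide strand loads into RISC. Duplexes were reverse-transfected at 10 nM with RNAiMAX in triplicate in 384-well plates; viability was read by CellTiter-Glo ATP content 96 h after transfection. Values are % viability normalised to lipid-only wells (HeyA8, H460, M565) or to siNT1 (3LL).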

M565 = assay: cell viability relative to lipid-only control; HeyA8 human ovarian and H460 human lung cancer; M565 mouse liver and 3LL mouse lung cancer; siNT1 is a non-toxic control siRNA; higher = less toxic; settings: concentration: 10 nM; 96 h; Mus musculus
Experimental: as §1

HeyA8 = assay: as above; settings: concentration: 10 nM; 96 h; Homo sapiens
Experimental: as §1

H460 = assay: as above; settings: concentration: 10 nM; 96 h; Homo sapiens
Experimental: as §1
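Wherever cell viability relative to lipid-only control is given: reverse lipid transfection in 384-well plates, in triplicate, of duplexes on a non-toxic 19mer backbone with passenger strand 2′-O-methylated at positions 1 and 2, luminescence viability read-out.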

Row | Sequence | cell viability (3LL) [%] | cell viability (M565) [%] | cell viability (HeyA8) [%] | cell viability (H460) [%]
1 | UCACCGCACAUGUAAACCAAA | 57.2 ± 19 | 30.4 ± 3.8 | 53.8 ± 2.7 | 38.8 ± 3.7
2 | UUGAACGACAUGUAAACCAAA | 23.4 ± 6.2 | 59.4 ± 3.4 | 97 ± 6.7 | 75.5 ± 8.9
3 | UCAUGAUACAUGUAAACCAAA | 49 ± 11 | 49.8 ± 8.7 | 38.8 ± 3.4 | 49 ± 3.7
4 | UGAAGGCACAUGUAAACCAAA | 4.28 ± 1.8 | 6.41 ± 2.5 | 10.6 ± 1.8 | 21.7 ± 3.8
5 | UAGCGCGACAUGUAAACCAAA | 85.9 ± 7.4 | 41.5 ± 5.2 | 61.9 ± 3.8 | 65.6 ± 4.7
6 | UGUGCUAACAUGUAAACCAAA | 90 ± 15 | 120 ± 17 | 88.5 ± 11 | 70.6 ± 11
7 | UCCUGGAACAUGUAAACCAAA | 69.3 ± 27 | 31 ± 5.4 | 72.8 ± 4.4 | 69.2 ± 1.5
8 | UAGACCUACAUGUAAACCAAA | 53.3 ± 1.4 | 48.5 ± 1.9 | 59.2 ± 3.8 | 85 ± 26
9 | UUGAAUCACAUGUAAACCAAA | 19.7 ± 1.4 | 27.9 ± 4.9 | 55.8 ± 5.3 | 54.6 ± 8
10 | UAUACAGACAUGUAAACCAAA | 111 ± 12 | 107 ± 17 | 100 ± 5.2 | 71.7 ± 8.5
11 | UGAUCAUACAUGUAAACCAAA | 68.8 ± 11 | 25.8 ± 4 | 30.3 ± 3.3 | 33.4 ± 5.4
12 | UCUAAAAACAUGUAAACCAAA | 96.4 ± 14 | 68.9 ± 14 | 89 ± 11 | 76.8 ± 10
13 | UCACGGGACAUGUAAACCAAA | 74.1 ± 11 | 40.9 ± 7.1 | 81.9 ± 9.5 | 69.7 ± 2.5
14 | UCUUUCUACAUGUAAACCAAA | 85.4 ± 13 | 80.2 ± 16 | 46.1 ± 4.6 | 59.3 ± 2.6
15 | UGACAGGACAUGUAAACCAAA | 23.3 ± 2.2 | 17.25 ± 0.093 | 93.1 ± 4.4 | 32.9 ± 4
16 | UGGGGAGACAUGUAAACCAAA | 58.3 ± 15 | 28.4 ± 5.2 | 7.92 ± 0.52 | 16.8 ± 2.6
17 | UACAGCAACAUGUAAACCAAA | 87.2 ± 7.5 | 80 ± 5.2 | 93.1 ± 4.9 | 67.5 ± 6.7
18 | UGCUAUCACAUGUAAACCAAA | 32.9 ± 2.5 | 64.8 ± 5 | 7.87 ± 3.1 | 30.3 ± 1.5
19 | UAGAUGGACAUGUAAACCAAA | 63.6 ± 4.1 | 81.8 ± 5.5 | 52.5 ± 13 | 56.3 ± 7.6

Row | Sequence | cell viability (3LL) [%] | cell viability (M565) [%] | cell viability (HeyA8) [%] | cell viability (H460) [%]
20 | UGGAAUUACAUGUAAACCAAA | 101 ± 10 | 50.9 ± 9.3 | 59.2 ± 3.4 | 56.3 ± 13
21 | UUGAUCGACAUGUAAACCAAA | 84.1 ± 3.4 | 76.7 ± 4.7 | 77.6 ± 8.8 | 63 ± 2.1
22 | UGCGCGCACAUGUAAACCAAA | 68.5 ± 13 | 58.9 ± 10 | 11 ± 4 | 32.8 ± 0.7
23 | UCCUAUCACAUGUAAACCAAA | 58.9 ± 20 | 54.7 ± 7 | 72 ± 2.8 | 69.9 ± 10
24 | UGACAGAACAUGUAAACCAAA | 41.3 ± 2 | 9.01 ± 1.6 | 24.1 ± 1.2 | 53.5 ± 13
25 | UUAGCUCACAUGUAAACCAAA | 18.9 ± 1.8 | 56.6 ± 5.5 | 63.6 ± 5.9 | 51.3 ± 5.2
26 | UGGCAGGACAUGUAAACCAAA | 12.8 ± 1.2 | 16 ± 1.6 | 3.95 ± 0.68 | 13.5 ± 1.9
27 | UAUACACACAUGUAAACCAAA | 109 ± 11 | 77.9 ± 5.2 | 86.6 ± 6.3 | 61.6 ± 2.5
28 | UGAAUGCACAUGUAAACCAAA | 29.6 ± 5.3 | 17 ± 2.3 | 59.9 ± 6 | 65.3 ± 12
29 | UAGUGGUACAUGUAAACCAAA | 6.34 ± 0.57 | 80.7 ± 11 | 37.5 ± 2.1 | 58 ± 5.4
30 | UUUCUGAACAUGUAAACCAAA | 104 ± 4.2 | 93.9 ± 11 | 79 ± 2.6 | 51.3 ± 3
31 | UAGCGUCACAUGUAAACCAAA | 51.4 ± 1.6 | 33.6 ± 4.6 | 41.9 ± 2.4 | 59 ± 7
32 | UUAAGCUACAUGUAAACCAAA | 35 ± 5.5 | 41.1 ± 4.2 | 73.9 ± 6.9 | 59.1 ± 6.5
33 | UAUCAAAACAUGUAAACCAAA | 113 ± 14 | 76 ± 10 | 104 ± 0.99 | 60.2 ± 4.5
34 | UUCAGCAACAUGUAAACCAAA | 67.7 ± 19 | 84 ± 10 | 78 ± 13 | 56.4 ± 4.8
35 | UUGGUUGACAUGUAAACCAAA | 93.9 ± 10 | 76.5 ± 13 | 87 ± 7.2 | 69.9 ± 8.7
36 | UCCGAAGACAUGUAAACCAAA | 105 ± 17 | 92.2 ± 7.2 | 85.9 ± 3.6 | 94.1 ± 12
37 | UGUAACAACAUGUAAACCAAA | 94 ± 7.5 | 53.9 ± 15 | 93.2 ± 5.4 | 91.3 ± 5.3
38 | UGAGGACACAUGUAAACCAAA | 33.8 ± 6.3 | 16.7 ± 2.7 | 18 ± 1.5 | 15 ± 0.53

Row | Sequence | cell viability (3LL) [%] | cell viability (M565) [%] | cell viability (HeyA8) [%] | cell viability (H460) [%]
39 | UCGACGGACAUGUAAACCAAA | 93 ± 17 | 64.8 ± 15 | 87 ± 4.9 | 62.2 ± 8.8
40 | UAGUUCUACAUGUAAACCAAA | 52.2 ± 1.7 | 15.9 ± 1 | 26.3 ± 2.2 | 48.6 ± 16
41 | UACGUUAACAUGUAAACCAAA | 95.2 ± 12 | 73.3 ± 9.8 | 92.2 ± 3.6 | 85.7 ± 17
42 | UAAGAGGACAUGUAAACCAAA | 81.1 ± 6.5 | 46.9 ± 8.5 | 72.8 ± 1.8 | 71.9 ± 7.7
43 | UUAUUCGACAUGUAAACCAAA | 39.1 ± 2.5 | 40.6 ± 4 | 99.5 ± 2.6 | 79.5 ± 11
44 | UCCCCGCACAUGUAAACCAAA | 65.7 ± 13 | 41 ± 15 | 58.8 ± 5.2 | 51.4 ± 4.3
45 | UUCAAACACAUGUAAACCAAA | 77 ± 8.3 | 104 ± 12 | 53.8 ± 8.2 | 50.9 ± 6.9
46 | UAAAUUUACAUGUAAACCAAA | 117 ± 11 | 105 ± 12 | 99.3 ± 9.6 | 74.1 ± 8.5
47 | UGUGUCUACAUGUAAACCAAA | 14.9 ± 9.3 | 35.5 ± 6.8 | 19 ± 3.5 | 48.5 ± 2.3
48 | UAGUAUCACAUGUAAACCAAA | 71.1 ± 6.1 | 36.2 ± 3.1 | 16.6 ± 1.7 | 44.6 ± 10
49 | UUUUCAAACAUGUAAACCAAA | 103 ± 8 | 98.4 ± 6.6 | 88.4 ± 2.6 | 65.8 ± 8
50 | UGCCGUAACAUGUAAACCAAA | 77.8 ± 7.6 | 36.3 ± 5.5 | 77.1 ± 3.6 | 66.5 ± 9.9
51 | UAUUGGUACAUGUAAACCAAA | 87.5 ± 30 | 93.7 ± 22 | 43.5 ± 8 | 41.9 ± 2.9
52 | UGCCUUGACAUGUAAACCAAA | 86.4 ± 16 | 42 ± 6.3 | 45.2 ± 4.4 | 63.3 ± 9.1
53 | UAAAUGAACAUGUAAACCAAA | 111 ± 17 | 110 ± 13 | 99.4 ± 2.7 | 62.6 ± 5.2
54 | UUAUCUGACAUGUAAACCAAA | 88.5 ± 10 | 91.8 ± 12 | 95.8 ± 6.9 | 84.5 ± 3.6
55 | UAACGUAACAUGUAAACCAAA | 88.1 ± 5.7 | 72.2 ± 3.8 | 86.7 ± 7.8 | 71.05 ± 0.61
56 | UUUUCGAACAUGUAAACCAAA | 94.7 ± 4.3 | 90.9 ± 12 | 89.1 ± 1 | 75.3 ± 14
57 | UUCGCCGACAUGUAAACCAAA | 91.1 ± 14 | 101 ± 2.9 | 95.8 ± 6.6 | 90.4 ± 22
